# From the supplement of paper PMC8728848
# This is one part of the list.
# B1: Di AAL2 (Agrocybe aegerita) (protein)
# chain: MTSNVITQDLPIPVASRGFADIVGFGLDGVVIGRNAVNLQPFLAVKNFAQNAGGWLTTKHVRLIADTTGTGKGDIVGFGNAGVYVSVNNGKNTFADPPKMVIANFGYDAGGWRVEKHLRYLADIRKIGRADIIGFGEKGVLVSRNNGGLNFGPATLVLKDFGYDAGGWRLDRHLRFLADVTGNGHLDIVGFGDKHVFISRNNGDGTFAPAKSVIDNFCIDAGGWKIGDHPRFVADLTGDGTADIIGCGKAGCWVALNNGGGVFGQVKLVINDFGTDKGWQAAKHPRFIADLTGNGRGDVVGFGNAGVYVALNNGDGTFQSAKLVLKDFGVQQGWTVSKHRRFVVDLTGDGCADIIGFGEKETLVSYNDGKGNFGPVKALTNDFSFSGGKWAPETTVCWMANLDSSRHPAPAPMTSNVITQDLPIPVASRGFADIVGFGLDGVVIGRNAVNLQPFLAVKNFAQNAGGWLTTKHVRLIADTTGTGKGDIVGFGNAGVYVSVNNGKNTFADPPKMVIANFGYDAGGWRVEKHLRYLADIRKIGRADIIGFGEKGVLVSRNNGGLNFGPATLVLKDFGYDAGGWRLDRHLRFLADVTGNGHLDIVGFGDKHVFISRNNGDGTFAPAKSVIDNFCIDAGGWKIGDHPRFVADLTGDGTADIIGCGKAGCWVALNNGGGVFGQVKLVINDFGTDKGWQAAKHPRFIADLTGNGRGDVVGFGNAGVYVALNNGDGTFQSAKLVLKDFGVQQGWTVSKHRRFVVDLTGDGCADIIGFGEKETLVSYNDGKGNFGPVKALTNDFSFSGGKWAPETTVCWMANLDSSRH
# How the values were obtained:
# Assay in all cases: glycan array binding signal (z-score within array); higher = stronger binding
# Settings in all cases: glycan notation: IUPAC condensed, linker removed
# [1] = biological target: Gal3S(b1-3)[Fuc(a1-4)]GlcNAc
# Summary of the method: (§1)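 Columns mapping to the same glycan were averaged after glycan names were converted to IUPAC-condensed notation. The data come from 3228 arrays in the Consortium for Functional Glycomics database, limited to those with an available protein sequence. Binding is reported as a within-array Z-score averaged across arrays of one protein sequence and across linkers.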
# [2] = biological target: Gal3S(b1-4)Glc
# Summary of the method: as §1
# [3] = biological target: Gal3S(b1-4)Glc6S
# Summary of the method: as §1
# [4] = biological target: Gal3S(b1-4)GlcNAc
# Summary of the method: as §1
# [5] = biological target: Gal3S(b1-4)[Fuc(a1-3)]Glc6S
# Summary of the method: as §1
# [6] = biological target: Gal3S(b1-4)[Fuc(a1-3)]GlcNAc
# Summary of the method: as §1
# [7] = biological target: Gal3S(b1-4)[Fuc(a1-3)]GlcNAc6S
# Summary of the method: as §1
# [8] = biological target: Gal3S4S(b1-4)GlcNAc
# Summary of the method: as §1
# [9] = biological target: Gal3S6S(b1-4)GlcNAc
# Summary of the method: as §1
# [10] = biological target: Gal3S6S(b1-4)GlcNAc6S
# Summary of the method: as §1
# [11] = biological target: Gal4S(b1-4)GlcNAc
# Summary of the method: as §1
# [12] = biological target: Gal4S6S(b1-4)GlcNAc
# Summary of the method: as §1
# [13] = biological target: Gal6P(b1-4)GlcNAc
# Summary of the method: as §1
# [14] = biological target: Gal6S(b1-3)GlcNAc
# Summary of the method: as §1
# [15] = biological target: Gal6S(b1-3)GlcNAc6S
# Summary of the method: as §1
# [16] = biological target: Gal6S(b1-4)Glc
# Summary of the method: as §1
# [17] = biological target: Gal6S(b1-4)Glc6S
# Summary of the method: as §1
# [18] = biological target: Gal6S(b1-4)GlcNAc
# Summary of the method: as §1
# [19] = biological target: Gal6S(b1-4)GlcNAc6S
# Summary of the method: as §1
# [20] = biological target: GalNAc(a1-3)Gal
# Summary of the method: as §1
# [21] = biological target: GalNAc(a1-3)GalNAc
# Summary of the method: as §1
# [22] = biological target: GalNAc(a1-3)GalNAc(b1-3)Gal(a1-4)Gal(b1-4)Glc
# Summary of the method: as §1
# [23] = biological target: GalNAc(a1-3)GalNAc(b1-3)Gal(a1-4)Gal(b1-4)GlcNAc
# Summary of the method: as §1
# [24] = biological target: GalNAc(b1-3)Gal
# Summary of the method: as §1
# [25] = biological target: GalNAc(b1-3)Gal(a1-4)Gal(b1-4)GlcNAc
# Summary of the method: as §1
# [26] = biological target: GalNAc(b1-3)Gal(a1-4)Gal(b1-4)GlcNAc(b1-3)Gal(b1-4)Glc
# Summary of the method: as §1
# [27] = biological target: GalNAc(b1-3)Gal(a1-6)Gal(b1-4)Glc
# Summary of the method: as §1
# [28] = biological target: GalNAc(b1-3)GalNAc
# Summary of the method: as §1
# [29] = biological target: GalNAc(b1-3)GlcNAc
# Summary of the method: as §1
# [30] = biological target: GalNAc(b1-4)Gal(b1-4)Glc
# Summary of the method: as §1
# [31] = biological target: GalNAc(b1-4)GlcNAc
# Summary of the method: as §1
# [32] = biological target: GalNAc(b1-4)GlcNAc(b1-2)Man
# Summary of the method: as §1
# [33] = biological target: GalNAc(b1-4)GlcNAc(b1-2)Man(a1-3)[GalNAc(b1-4)GlcNAc(b1-2)Man(a1-6)]Man(b1-4)GlcNAc(b1-4)GlcNAc
# Summary of the method: as §1
# [34] = biological target: GalNAc(b1-4)GlcNAc(b1-3)GalNAc(b1-4)GlcNAc
# Summary of the method: as §1
# [35] = biological target: GalNAc(b1-4)GlcNAc6S
# Summary of the method: as §1
# [36] = biological target: GalNAc(b1-6)GalNAc
# Summary of the method: as §1
# [37] = biological target: GalNAc3S(b1-4)GlcNAc
# Summary of the method: as §1
# [38] = biological target: GalNAc3S(b1-4)GlcNAc3S
# Summary of the method: as §1
# [39] = biological target: GalNAc3S(b1-4)[Fuc(a1-3)]GlcNAc
# Summary of the method: as §1
# [40] = biological target: GalNAc4S6S(b1-4)GlcNAc
# Summary of the method: as §1
# [41] = biological target: GalNAc6S(b1-4)GlcNAc
# Summary of the method: as §1
# [42] = biological target: Glc(a1-4)Glc
# Summary of the method: as §1
# [43] = biological target: Glc(a1-4)Glc(a1-4)Glc(a1-4)Glc
# Summary of the method: as §1
# [44] = biological target: Glc(a1-6)Glc(a1-6)Glc
# Summary of the method: as §1
# [45] = biological target: Glc(a1-6)Glc(a1-6)Glc(a1-6)Glc
# Summary of the method: as §1
# [46] = biological target: Glc(b1-4)Glc
# Summary of the method: as §1
# [47] = biological target: Glc(b1-6)Glc
# Summary of the method: as §1
# [48] = biological target: GlcA(b1-3)Gal
# Summary of the method: as §1
# [49] = biological target: GlcA(b1-3)GlcNAc
# Summary of the method: as §1
# [50] = biological target: GlcA(b1-6)Gal
# Summary of the method: as §1
# [51] = biological target: GlcA3S(b1-3)Gal(b1-4)GlcNAc(b1-2)Man
# Summary of the method: as §1
# [52] = biological target: GlcA3S(b1-3)Gal(b1-4)GlcNAc(b1-3)Gal(b1-4)Glc
# Summary of the method: as §1
# [53] = biological target: GlcNAc(a1-3)Gal(b1-4)GlcNAc
# Summary of the method: as §1
# [54] = biological target: GlcNAc(a1-4)Gal(b1-3)GlcNAc
# Summary of the method: as §1
# [55] = biological target: GlcNAc(a1-4)Gal(b1-4)GalNAc
# Summary of the method: as §1
# [56] = biological target: GlcNAc(a1-4)Gal(b1-4)GlcNAc
# Summary of the method: as §1
# [57] = biological target: GlcNAc(a1-4)Gal(b1-4)GlcNAc(b1-3)Gal(b1-4)Glc
# Summary of the method: as §1
# [58] = biological target: GlcNAc(a1-4)Gal(b1-4)GlcNAc(b1-3)Gal(b1-4)GlcNAc
# Summary of the method: as §1
# [59] = biological target: GlcNAc(a1-4)Gal(b1-4)GlcNAc(b1-3)Gal(b1-4)GlcNAc(b1-3)Gal(b1-4)GlcNAc
# Summary of the method: as §1
# [60] = biological target: GlcNAc(a1-4)Gal(b1-4)GlcNAc(b1-3)Gal(b1-4)[Fuc(a1-3)]GlcNAc(b1-3)Gal(b1-4)[Fuc(a1-3)]GlcNAc
# Summary of the method: as §1
binder,measurement,setting,value
B1,glycan array binding signal (z-score),[1],-0.33
same,glycan array binding signal (z-score),[2],-0.334
same,glycan array binding signal (z-score),[3],-0.332
same,glycan array binding signal (z-score),[4],-0.335
same,glycan array binding signal (z-score),[5],-0.306
same,glycan array binding signal (z-score),[6],-0.34
same,glycan array binding signal (z-score),[7],-0.321
same,glycan array binding signal (z-score),[8],-0.336
same,glycan array binding signal (z-score),[9],-0.336
same,glycan array binding signal (z-score),[10],-0.302
same,glycan array binding signal (z-score),[11],-0.348
same,glycan array binding signal (z-score),[12],-0.338
same,glycan array binding signal (z-score),[13],-0.318
same,glycan array binding signal (z-score),[14],-0.327
same,glycan array binding signal (z-score),[15],-0.328
same,glycan array binding signal (z-score),[16],-0.338
same,glycan array binding signal (z-score),[17],-0.326
same,glycan array binding signal (z-score),[18],-0.34
same,glycan array binding signal (z-score),[19],-0.331
same,glycan array binding signal (z-score),[20],-0.253
same,glycan array binding signal (z-score),[21],-0.285
same,glycan array binding signal (z-score),[22],-0.179
same,glycan array binding signal (z-score),[23],-0.226
same,glycan array binding signal (z-score),[24],0.303
same,glycan array binding signal (z-score),[25],-0.199
same,glycan array binding signal (z-score),[26],-0.077
same,glycan array binding signal (z-score),[27],-0.033
same,glycan array binding signal (z-score),[28],1.5
same,glycan array binding signal (z-score),[29],-0.318
same,glycan array binding signal (z-score),[30],-0.329
same,glycan array binding signal (z-score),[31],-0.195
same,glycan array binding signal (z-score),[32],-0.315
same,glycan array binding signal (z-score),[33],-0.306
same,glycan array binding signal (z-score),[34],0.421
same,glycan array binding signal (z-score),[35],-0.324
same,glycan array binding signal (z-score),[36],-0.281
same,glycan array binding signal (z-score),[37],-0.335
same,glycan array binding signal (z-score),[38],-0.327
same,glycan array binding signal (z-score),[39],-0.328
same,glycan array binding signal (z-score),[40],-0.269
same,glycan array binding signal (z-score),[41],-0.311
same,glycan array binding signal (z-score),[42],-0.332
same,glycan array binding signal (z-score),[43],-0.33
same,glycan array binding signal (z-score),[44],-0.333
same,glycan array binding signal (z-score),[45],-0.326
same,glycan array binding signal (z-score),[46],-0.324
same,glycan array binding signal (z-score),[47],-0.325
same,glycan array binding signal (z-score),[48],-0.329
same,glycan array binding signal (z-score),[49],2.48
same,glycan array binding signal (z-score),[50],-0.325
same,glycan array binding signal (z-score),[51],-0.327
same,glycan array binding signal (z-score),[52],-0.311
same,glycan array binding signal (z-score),[53],2.92
same,glycan array binding signal (z-score),[54],1.07
same,glycan array binding signal (z-score),[55],1.54
same,glycan array binding signal (z-score),[56],2.75
same,glycan array binding signal (z-score),[57],2.79
same,glycan array binding signal (z-score),[58],2.68
same,glycan array binding signal (z-score),[59],3.24
same,glycan array binding signal (z-score),[60],1.47
